From FireProtDB (doi:10.1021/bi0507940)
Where “and” joins values, the source holds several entries; their conditions need not be identical. Equal values may be shown once.

Details: Homo sapiens; pH 7.4; Thermal; DSC; Phosphate 7 mM; reversible: yes

Substance: Insulin wild type (chain not printed)
- unfolding enthalpy (calorimetric): 22.7 kcal/mol and 24 kcal/mol and 34.5 kcal/mol
- unfolding enthalpy (van 't Hoff): 49.4 kcal/mol and 49.5 kcal/mol
